How the values were obtained:
normal human fibroblasts [1] = assay: ROS production in normal human fibroblasts (DCFH-DA fluorescence); format: cell-based; settings: 10 micrograms/ml, 15 minutes incubation
Excerpt: (§1) FIG. 5 Characterization of recombinant human monoclonal auto-antibodies (rHumaab). IgG were affinity-purified from serum-free supernatants of CHO cells stably transfected with each of the four rHumaab constructs and used (10 micrograms/ml) in four independent assays. Each result is representative of three experiments performed under the same conditions. (a) Vk13B8, Vk16F4 and Vlambda16F4, but not Vlambda13B8 rHumaab, immunoprecipitated PDGFR alpha from normal human fibroblast extracts. A mouse monoclonal anti-PDGFR alpha antibody was used as positive control. Immunoprecipitated PDGFR alpha was visualized by immunoblotting with rabbit anti-PDGFR alpha antibody-HRP. (b-c) Vk16F4 and Vlambda16F4, but not Vk13B8 and Vlambda13B8 rHumaab, induced (b) ROS production and (c) increased ERK phosphorylation (p-ERK) in normal human fibroblasts after 15 minutes incubation. […] Intracellular ROS production was measured by DCFH-DA fluorescence. […] Type I A1 and A2 collagen gene expression was measured by quantitative real-time PCR in RNA extracted from fibroblasts at baseline and after stimulation with the indicated reagents. […] Mouse collagen gene expression was measured by quantitative real-time PCR in RNA extracted from F alpha and F−/− fibroblasts at baseline and after 1 hour stimulation with Vk16F4 rHumaab or human PDGF-BB. […]

normal human fibroblasts [2] = assay: ERK phosphorylation (p-ERK immunoblot) in normal human fibroblasts; format: cell-based; settings: 10 micrograms/ml, 15 minutes incubation
Excerpt: as §1

normal human fibroblasts [3] = assay: type I collagen gene transcription in normal human fibroblasts (real-time PCR); format: cell-based
Excerpt: FIG. 5 Characterization of recombinant human monoclonal auto-antibodies (rHumaab). IgG were affinity-purified from serum-free supernatants of CHO cells stably transfected with each of the four rHumaab constructs and used (10 micrograms/ml) in four independent assays. Each result is representative of three experiments performed under the same conditions. (a) Vk13B8, Vk16F4 and Vlambda16F4, but not Vlambda13B8 rHumaab, immunoprecipitated PDGFR alpha from normal human fibroblast extracts. A mouse monoclonal anti-PDGFR alpha antibody was used as positive control. Immunoprecipitated PDGFR alpha was visualized by immunoblotting with rabbit anti-PDGFR alpha antibody-HRP. (b-c) Vk16F4 and Vlambda16F4, but not Vk13B8 and Vlambda13B8 rHumaab, induced (b) ROS production and (c) increased ERK phosphorylation (p-ERK) in normal human fibroblasts after 15 minutes incubation. Levels of ROS and p-ERK in fibroblasts at baseline and upon 15 minutes incubation with PDGF-BB are shown. Intracellular ROS production was measured by DCFH-DA fluorescence. Total proteins extracted from fibroblasts at baseline and after stimulation with the indicated reagents were immunoblotted with a mouse monoclonal antibody specific for p-ERK. (d) Vk16F4, but not the other rHumaab, induced increase of type I collagen gene transcription in normal human fibroblasts after 1 hour incubation. Type I A1 and A2 collagen gene expression was measured by quantitative real-time PCR in RNA extracted from fibroblasts at baseline and after stimulation with the indicated reagents. […] Mouse collagen gene expression was measured by quantitative real-time PCR in RNA extracted from F alpha and F−/− fibroblasts at baseline and after 1 hour stimulation with Vk16F4 rHumaab or human PDGF-BB.
Human skin fibroblasts were cultured and used within the fifth passages. […] For collagen gene quantification, total RNA was extracted from human and mouse fibroblasts at baseline and after 1 hour stimulation with the reagents indicated above, using Aurum total RNA mini Kit (Bio-Rad), which included DNase treatment. […]

[4] = test system: mouse fibroblasts transfected with full-length human PDGFR alpha (F alpha) or mock (F−/−); assay: mouse collagen gene expression in F alpha and F-/- fibroblasts; format: cell-based; settings: F alpha and F−/− cells treated in parallel; 1 hour stimulation
Excerpt: as §1

[5] = test system: human smooth muscle cells; assay: proliferation and migration of human smooth muscle cells; format: cell-based; settings: preliminary results
PDGFR alpha [6] = biological target: T1, PDGFR alpha (Homo sapiens, UniProt P16234); assay: optical biosensor binding to immobilized His-tagged PDGFR alpha; set-up: cDNA encoding aminoacids 1-834 of human PDGFR alpha; made in house
Method: A detailed characterization of rHumaab interaction with human PDGFR alpha was performed on an optical biosensor, using as a molecular bait a homemade truncated conformer of this receptor containing the complete extracellular and transmembrane regions joined to a poly-histidine tail (HIS tag) replacing part of the intracellular domain, and serving both as an anchor to the biosensor surface and as a spacer. Preservation of proper folding of the immobilized receptor into a naïve-like conformation was verified by monitoring the interaction with its natural binding partner (PDGF-BB) and with two mouse monoclonal antibodies specific for conformational PDGFR alpha epitopes (FIG. 6a). Using this approach, both kinetics and equilibrium parameters of the interaction between PDGF-BB, each rHumaab and PDGFR alpha were determined. […]
cDNA encoding aminoacids 1-834 of human PDGFR alpha was inserted in the pcDNA V5 HIS A vector (Invitrogen), in order to fuse the COOH— terminal of the protein with a 6× histidine tag. […] Presence of a single His-tagged PDGFR alpha product in eluted fractions was evaluated by immunoblotting with specific anti-PDGFR alpha (R&D Biosystems) and anti-histidine (Sigma-Aldrich) monoclonal antibodies. […]
Relative quantification of target genes between samples was calculated by the 2^−ΔΔCt method using the program iQ5 (Bio-Rad). […]

PDGFR alpha [7] = biological target: T1, PDGFR alpha; assay: competitive binding on optical biosensor; set-up: cDNA encoding aminoacids 1-834 of human PDGFR alpha; made in house
Method: To draw a map of the PDGFR alpha epitopes recognized by the rHumaab, competitive binding experiments were performed on the optical biosensor platform, where the surface of immobilized HIS-tagged PDGFR alpha was saturated with PDGF-BB prior to the addition of each rHumaab.
Binding assays were performed on a IAsys plus biosensor. The carboxylate surface was equilibrated with PBS buffer, and activated by addition of an equimolar mixture of N-hydroxysuccinimide and N-ethyl-N-(dimethylaminopropyl) carbodiimide hydrochloride following the standard procedure (Davies, R J et al. Academic Press: San Diego, 1994).
Next, His-tagged PDGFR alpha (200 micrograms/mL) was incubated over the surface for 20 min, and free carboxylic sites on the sensor surface were deactivated by injection of 1M ethanolamine, pH 8.5. Finally, the surface was re-equilibrated with PBS. rHumaab and PDGF-BB were added at different concentrations, and association kinetics were followed up to equilibrium, whereas dissociation steps and surface regeneration were performed by addition of fresh buffer, each time assessing the baseline recovery prior to any new addition of ligand. Kinetic and equilibrium parameters were derived from global fit of raw data both to mono- and bi-exponential models (Cuccioloni M et al. J Lipid Res 2011; 52 (5): 897-907).

PDGFR alpha [8] = biological target: T1, PDGFR alpha; assay: immunoprecipitation and immunoblotting of PDGFR alpha from human fibroblast extracts; format: binding; set-up: 100 micrograms of total protein from human fibroblast extract; endogenous in cells; host or cells: normal human (skin) fibroblasts, total cell extract; settings: normal human fibroblast extracts; 10 micrograms/ml
Method: Immunoprecipitating antibodies were individually incubated for 4 hours at 4° C. with an aliquot of 100 micrograms of total protein from human fibroblast extract. The reaction mixture was adjusted to a final volume of 500 microliters with assay buffer (PBS, 1% Nonidet P-40, 0.5% sodium deoxycholate, 1 mM PMSF). Rabbit anti-PDGFR alpha antibody and rabbit IgG (Santa Cruz), IgG purified from EBV-transformed B cell culture supernatants and rHumaab were used at 10 micrograms/ml, total IgG purified from serum of SSc patients and healthy subjects at 200 micrograms/ml. Then, 20 microliters agarose-Protein A/G (Santa Cruz) were added to the antibody-cell extract mixture and incubated overnight under rotation at 4° C. After centrifugation and extensive washing, immunoprecipitates were suspended in 20 microliters of loading buffer (150 mM Tris-HCl, pH 6.8/6% SDS/0.3% bromophenol blue/30% glycerol) and heated to 100° C. for 10 minutes prior to immunoblotting with a commercial rabbit anti-PDGFR alpha antibody (Santa Cruz).

T1 sequence (P16234 24-1089): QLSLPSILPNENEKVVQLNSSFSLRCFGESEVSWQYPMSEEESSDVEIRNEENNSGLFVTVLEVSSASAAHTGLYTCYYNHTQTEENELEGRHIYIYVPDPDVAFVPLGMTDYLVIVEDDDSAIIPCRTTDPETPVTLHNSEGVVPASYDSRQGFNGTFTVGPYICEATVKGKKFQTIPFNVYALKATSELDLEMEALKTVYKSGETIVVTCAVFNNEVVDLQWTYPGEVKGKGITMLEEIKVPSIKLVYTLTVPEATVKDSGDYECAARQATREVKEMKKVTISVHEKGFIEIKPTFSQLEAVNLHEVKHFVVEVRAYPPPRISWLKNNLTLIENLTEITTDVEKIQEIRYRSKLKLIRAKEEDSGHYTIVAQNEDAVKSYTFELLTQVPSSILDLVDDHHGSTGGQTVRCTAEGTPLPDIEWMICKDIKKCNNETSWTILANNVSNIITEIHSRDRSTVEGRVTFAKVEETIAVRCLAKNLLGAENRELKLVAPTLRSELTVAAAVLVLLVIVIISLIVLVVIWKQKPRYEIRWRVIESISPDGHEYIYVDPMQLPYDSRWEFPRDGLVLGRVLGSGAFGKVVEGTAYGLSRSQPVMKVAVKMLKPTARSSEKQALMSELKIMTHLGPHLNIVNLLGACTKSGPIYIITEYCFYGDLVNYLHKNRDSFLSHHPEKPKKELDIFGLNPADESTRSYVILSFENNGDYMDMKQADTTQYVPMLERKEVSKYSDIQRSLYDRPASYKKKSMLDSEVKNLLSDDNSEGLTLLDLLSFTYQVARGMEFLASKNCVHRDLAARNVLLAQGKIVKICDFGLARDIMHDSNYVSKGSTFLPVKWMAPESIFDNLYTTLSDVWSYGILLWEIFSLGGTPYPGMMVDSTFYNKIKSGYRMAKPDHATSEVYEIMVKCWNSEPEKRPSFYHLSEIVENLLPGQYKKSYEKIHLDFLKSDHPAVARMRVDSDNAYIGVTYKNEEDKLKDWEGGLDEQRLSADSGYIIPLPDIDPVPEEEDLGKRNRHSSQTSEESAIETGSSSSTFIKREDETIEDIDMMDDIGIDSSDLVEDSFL

B1: Vk16F4: recombinant human monoclonal IgG1, VH PAM paired with Vk16F4 VL (SEQ ID No. 6; SEQ ID No. 12); agonistic anti-PDGFR alpha (antibody, V domains shown)
VH: GLVKPLETLSLTCSVSGGSVSDGSYFWNWIRQPPGKGLEWIGYAYSRGTTNYSPSLKGRITISVDKSKNQISLKLTSVTPADTAVYYCARDSFEIWGQGTMVTV
VL: DIQMTQSPDSLAVSLGERATINCKSSQSVLYSSDNKNYLAWYQQKPGQPPKLLLYWASTRESGVPDRFSGSGSGTDFTLTISSLQAEDVAVYYCQQYYSTPKTFGQGTKVEIK
ROS production (normal human fibroblasts [1]): induced
ERK phosphorylation (p-ERK) (normal human fibroblasts [2]): increased
increase of type I collagen gene transcription (normal human fibroblasts [3]; 10 micrograms/ml, 1 hour incubation): stimulating an increase
duration of collagen gene stimulation (normal human fibroblasts [3]; time course): up to 24 hours
peak of type I collagen gene transcription (normal human fibroblasts [3]; time course): 6 h
type I collagen gene up-regulation [4]: observed only in F alpha cells
migration of human smooth muscle cells [5]: able to stimulate
proliferation of human smooth muscle cells [5]: able to stimulate
kdiss (dissociation rate constant) (PDGFR alpha [6]): 0.02 s⁻¹
binding to PDGFR alpha pre-saturated with Vk13B8 rHumaab (PDGFR alpha [7]; 10 nM Vk16F4, receptor saturated with molar excess of Vk13B8): only marginally interfered
binding to PDGFR alpha pre-saturated with PDGF-BB (PDGFR alpha [7]; immobilized His-tagged PDGFR alpha saturated with molar excess of PDGF-BB): prevented
immunoprecipitation of PDGFR alpha (PDGFR alpha [8]): specifically bound
